“And” between values parts separate entries of the source, which are not always exact repeats. Equal entries are not always repeated. About 15 (0.02%) of roughly 75,000 compounds were called active. Inconclusive results, whose numbers are uncertain, are shown with a selection of clear calls. Calls come from the whole dose curve; as a rule, active = well fitted inhibition curve with a large enough effect in the main read-out, with a control signal flat (not every such curve was filed as active); inconclusive = small, poorly fitted or top-dose-only effect, or a change in a side signal; inactive = flat fitted curve, though single readings scatter. A potency beside an inconclusive call is a rough fit, not a confirmed value. A note “side channel” means that the fit belongs to a control or component signal, not to the main read-out.
The molecules below were run against Caspase-7 (Homo sapiens) (UniProt P55210) (assay: qHTS Assay for Allosteric/Competitive Inhibitors of Caspase-7). Details: recombinant caspase-7, Ac-DEVD-AFC fluorescence rate; activity change, negative = inhibition: at 57.5 µM (top of the series) unless noted.
Sequence of UniProt P55210 (P55210 whole entry, looked up): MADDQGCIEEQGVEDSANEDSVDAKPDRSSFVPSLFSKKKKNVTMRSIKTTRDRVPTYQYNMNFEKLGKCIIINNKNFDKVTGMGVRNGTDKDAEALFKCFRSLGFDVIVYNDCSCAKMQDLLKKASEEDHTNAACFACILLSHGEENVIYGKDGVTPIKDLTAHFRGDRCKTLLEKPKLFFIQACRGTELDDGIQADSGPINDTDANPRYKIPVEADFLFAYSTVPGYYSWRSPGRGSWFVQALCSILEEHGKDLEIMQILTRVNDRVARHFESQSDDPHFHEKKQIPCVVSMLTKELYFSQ
With `COCCn1c(=O)c(-c2ccc(OC)cc2)nc2cnc(Oc3ccccc3)nc21` the Potency was inconclusive: 20 µM [fluorescent, side channel, partial curve]. `CCNc1ncc2nc(-c3ccc(F)cc3)c(=O)n(C[C@H]3CCCO3)c2n1` was tested, and the Potency was inconclusive: 1.58 µM [fluorescent, side channel, full curve]. With `CC(=O)O[C@@H]1CC[C@]2(C)C(=C[C@@H]([C@@H]3C=C4C[C@@H](OC(C)=O)CC[C@]4(C)C4=C3[C@H]3C[C@@H]5O[C@@]6(CC[C@H](C)CO6)[C@@H](C)[C@@H]5[C@@]3(C)CC4)C3=C2CC[C@@]2(C)[C@H]4[C@@H](C)[C@]5(CC[C@H](C)CO5)O[C@@H]4C[C@H]32)C1` the activity change, negative = inhibition was inactive: -0.0962% [at 11.5 µM]. With `C=CCNS(=O)(=O)c1cccc2cc(C(=O)O)c(O)cc12` the Potency was inconclusive: 15.8 µM [fluorescent, partial curve]. With `CCOC(=O)c1cc2sc(C)cc2n1CC(=O)N1CCc2ccccc21` the “activity change, negative = inhibition” value was inactive: -0.352%. With `CCCCN(C(=O)c1ccc(Cl)cc1)C1CC2CCC(C1)N2C` (configuration not stated) the “activity change, negative = inhibition” value was inactive: 0.977%. For `CCN1C(=O)c2cccc3c(S(=O)(=O)NCCCN4CCOCC4)ccc1c23`, the Potency was inconclusive: 15.8 µM [fluorescent, side channel, partial curve]. `CCNc1oc(-c2cccc3ccccc23)nc1C#N` was tested, and the Potency was inconclusive: 15.8 µM [fluorescent, side channel, partial curve]. For `CCCCCCC#CC1C=CC(Oc2ccc(C=O)cc2)C(CO)O1` (configuration not stated), the activity change, negative = inhibition was inactive: -0.216% [at 11.5 µM]. With `O=C(c1cnn2c(C(F)(F)F)cc(-c3ccco3)nc12)N1CCCCCC1` the Potency was inconclusive: 25.1 µM [inhibitor, partial curve]. With `COc1ncc2nc(-c3cccs3)c(=O)n(Cc3cccs3)c2n1` the Potency was inconclusive: 5.01 µM [fluorescent, full curve]. For `CC(=O)c1sc2nc(-c3cccs3)cc(C(F)(F)F)c2c1N`, the Potency was inconclusive: 20 µM [inhibitor, partial curve]. `O=C(c1cccn2c(=O)c3ccccc3nc12)N1CCN(Cc2ccc3c(c2)OCO3)CC1` was tested, and the Potency was inconclusive: 15.8 µM [fluorescent, side channel, partial curve]. With `COC(=O)c1cc(COc2ccc3ccc(=O)oc3c2)c(C)o1` the “activity change, negative = inhibition” value was inactive: -1.79%. In the case of `CCn1c(SCC(=O)OC)nc2sc3c(c2c1=O)CCC3`, the “activity change, negative = inhibition” value is reported as inactive: -14.4%. `COc1ccc(Cn2c(C)nc3c(c2=O)c2nc4ccccc4nc2n3Cc2ccco2)cc1` was tested, and the Potency was inconclusive: 25.1 µM [inhibitor, single point]. With `O=C(NCc1ccco1)c1nc2nc(-c3cccs3)cc(C(F)(F)F)n2n1` the Potency was inconclusive: 31.6 µM [fluorescent, single point]. With `COc1ccc(CCn2c(N)c(S(=O)(=O)c3cccs3)c3nc4ccccc4nc32)cc1OC` the “activity change, negative = inhibition” value was inactive: -0.542%. With `COc1ccc(-n2c(=O)c(C)nc3cnc(N4CCNCC4)nc32)cc1` the Potency was inconclusive: 20 µM [fluorescent, side channel, single point]. In the case of `Cc1ccc(-c2nc3cc(N)ccc3o2)c(C)c1`, the “activity change, negative = inhibition” value is reported as inactive: -1.15%. With `Fc1ccccc1N1CCN(Cc2nc(-c3ccccc3)no2)CC1` the Potency was inconclusive: 12.6 µM [fluorescent, partial curve]. `CN(C)c1ncc2nc(CCc3ccccc3)c(=O)n(-c3ccccc3)c2n1` was tested, and the Potency was inconclusive: 25.1 µM [fluorescent, side channel, partial curve]. For `Cc1c(N)c(=O)n(-c2ccccc2)n1C`, the Potency was “inactive”. With `CCOC(=O)c1sc(-c2ccccc2)cc1N` the “activity change, negative = inhibition” value was inactive: -4.1%. `CCc1nnc(NC(=O)c2ccc(OC)cc2OC)s1` was tested, and the “activity change, negative = inhibition” value was inactive: -0.778%. With `Cc1cnc(NC(=O)c2ccc(-c3nc4ccccc4s3)o2)s1` the Potency was inconclusive: 31.6 µM [fluorescent, single point]. `Cc1nc2[nH]onc2c2nccc(=O)c12` was tested, and the Potency was inconclusive: 20 µM [inhibitor, partial curve]. For `CCNc1ncc2nc(-c3cccs3)c(=O)n(-c3ccc(OC)cc3)c2n1`, the Potency was inconclusive: 2 µM [fluorescent, side channel, full curve]. With `N#Cc1c2c(c(NCc3ccco3)n3c1nc1ccccc13)CCC2` the Potency was inconclusive: 12.6 µM [fluorescent, partial curve]. With `O=c1cc(-c2ccccc2)[nH]n1-c1nc2ccccc2s1` the “activity change, negative = inhibition” value was inactive: -0.936%. With `Cc1cccc(N=c2oc3cc(O)ccc3cc2C(N)=O)c1` the Potency was inconclusive: 15.8 µM [fluorescent, partial curve]. In the case of `COc1cccc(OC)c1OCCCc1c(C)n[nH]c1C`, the “activity change, negative = inhibition” value is reported as inactive: -1.66%. `CCc1c(-c2ccccc2)nc2nc(C)c(C)nn12` was tested, and the Potency was inconclusive: 5.01 µM [fluorescent, side channel, partial curve]. For `CN1CCc2nc(N)nc(-c3nc(N)nc4c3CN(C)CC4)c2C1`, the activity change, negative = inhibition was inactive: -2.21% [at 11.5 µM]. For `COc1ccc(-c2c(C)oc3cc(O)cc(O)c3c2=O)cc1OC`, the Potency was inconclusive: 25.1 µM [inhibitor, partial curve]. For `Nc1c(C(=O)NCCN2CCOCC2)c2nc3ccccc3nc2n1-c1cccc(F)c1`, the Potency was inconclusive: 15.8 µM [fluorescent, side channel, partial curve]. With `CCOC(=O)C1CCCN(c2ncnc3c2cnn3-c2cccc(C)c2)C1` (configuration not stated) the “activity change, negative = inhibition” value was inactive: -2.03%. With `CC1=C(C(=O)OCC2CCCO2)C(c2ccccc2OC(C)C)C2=C(CC(c3ccco3)CC2=O)N1` (configuration not stated) the Potency was inconclusive: 15.8 µM [fluorescent, side channel, partial curve]. In the case of `Cn1cnc2cc(NC(=O)c3ccc(Cl)cc3)ccc21`, the “activity change, negative = inhibition” value is reported as inactive: 0.124%. For `O=C(CN1C(=O)c2cccc3cccc1c23)N1CCN(c2ccccc2)CC1`, the Potency was inconclusive: 31.6 µM [fluorescent, single point]. In the case of `COC(=O)Cn1nc(-c2ccccc2)c2ccccc21`, the “activity change, negative = inhibition” value is reported as inactive: -3.15%. For `C(=N\n1cnnc1)/c1ccc(N2CCOCC2)s1`, the Potency was inconclusive: 31.6 µM [inhibitor, single point]. With `CC(C)OCCCn1c(=S)[nH]c2ccc(N3CCOCC3)cc2c1=O` the Potency was inconclusive: 25.1 µM [fluorescent, partial curve]. With `COC(=O)c1cc2c(=O)n3ccccc3nc2n(C)c1=N` the Potency was inconclusive: 3.16 µM [fluorescent, side channel, full curve]. With `N=c1c(C(=O)NCc2ccccc2)cc2c(=O)n3ccccc3nc2n1CCCN1CCOCC1` the Potency was inconclusive: 5.01 µM [fluorescent, side channel, partial curve]. In the case of `Cc1nc2c(c(=O)n1Cc1ccccc1Cl)c1nc3ccccc3nc1n2Cc1ccco1`, the Potency is reported as inconclusive: 15.8 µM [inhibitor, partial curve]. In the case of `N#CC1=C2SCN(Cc3ccccc3)CN2C(=O)CC1c1cccs1` (configuration not stated), the Potency is reported as inconclusive: 31.6 µM [inhibitor, single point]. With `CC(=O)N1CCn2c3c(c(=O)c4cc(C)ccc42)CCC31` (configuration not stated) the Potency was inconclusive: 25.1 µM [inhibitor, single point]. `O=C1C2CC=C(Cl)CC2C(=O)N1CC1Cc2ccccc2CO1` (configuration not stated) was tested, and the Potency was inconclusive: 15.8 µM [fluorescent, partial curve]. In the case of `Cc1cc(N2CCC(C)CC2)n2ncc(-c3ccccc3)c2n1`, the Potency is reported as inconclusive: 31.6 µM [inhibitor, single point]. With `Cc1c(C)c(C)c(CC2(C)CSC2)c(CC2(C)CSC2)c1C` the activity change, negative = inhibition was inactive: -2.51% [at 11.5 µM]. `O=c1c(-c2ccc(Cl)cc2)nc2cnc(N3CCOCC3)nc2n1-c1ccccc1` was tested, and the Potency was inconclusive: 2.51 µM [fluorescent, side channel, full curve]. `COc1cccc(Cn2c(=O)c(-c3cc(F)cc(F)c3)nc3cnc(N4CCNCC4)nc32)c1` was tested, and the Potency was inconclusive: 15.8 µM [fluorescent, partial curve]. In the case of `N#Cc1c2c(c(NCCCN3CCOCC3)n3c1nc1ccccc13)CCC2`, the Potency is reported as inconclusive: 15.8 µM [fluorescent, side channel, partial curve]. For `CCOC(=O)CCc1c(C)c2ccc(O)cc2oc1=O`, the Potency was inconclusive: 15.8 µM [fluorescent, partial curve]. With `Nc1nc(N)c2nc(-c3ccccc3)c(N)nc2n1` the Potency was inconclusive: 10 µM [fluorescent, side channel, partial curve] and inconclusive: 15.8 µM [fluorescent, side channel, partial curve] and inconclusive: 12.6 µM [fluorescent, side channel, partial curve]. `C=CC1=C(C)/C(=C/c2[nH]c(Cc3[nH]c(/C=C4\NC(=O)C(C)=C4C=C)c(C)c3CCC(=O)O)c(CCC(=O)O)c2C)NC1=O` was tested, and the Potency was inconclusive: 20 µM [inhibitor, partial curve]. For `CO[C@H]1COC(=O)C/C=C\[C@@H](C)COC(=O)[C@H]2CCCN2C(=O)C/C=C\[C@H]1C`, the activity change, negative = inhibition was inactive: 1.69% [at 11.5 µM]. With `Clc1ccc(CSc2ncn[nH]2)cc1` the “activity change, negative = inhibition” value was inactive: 2.81%. In the case of `COc1ccc2nc(NC(=O)c3ccc(Br)s3)sc2c1`, the Potency is reported as inconclusive: 25.1 µM [inhibitor, partial curve]. With `COCCn1c(=O)c(-c2ccccc2)nc2cnc(Nc3cccc(OC)c3)nc21` the Potency was inconclusive: 3.16 µM [fluorescent, side channel, partial curve]. `CC1(C)CC(=O)C2=C(C1)N(c1cccc(O)c1)C1=C(C2)C(=O)CC(C)(C)C1` was tested, and the Potency was inconclusive: 3.98 µM [fluorescent, side channel, full curve].

— PubChem BioAssay AID889 (National Center for Advancing Translational Sciences (NCATS), 2007)
Potency is the fitted concentration of half-maximal effect; tags give direction and shape of the fitted curve or compound fluorescence and quenching.
Throughout, for activity change, negative = inhibition: % of control where 0% means no effect.
